This is an account of results in PubChem BioAssay AID1963576 (National Center for Advancing Translational Sciences (NCATS), 2024).

Hit rate of the full screen: of about 46,000 compounds, about 60 (0.1%) were called active. Inconclusive results (about 3%) are left out. Calls follow the shape of the dose curve; as a rule, active = well fitted inhibition curve with a large enough effect; inconclusive = small, poorly fitted or top-dose-only effect; inactive = no such curve, though single readings can be large or run the other way. The list shows a part of the results.

This experiment is described as follows: Primary qHTS assay for Inhibitors of ovarian cancer metastasis using an organotypic tumor microenvironment (TME) model. Also: nearly all actives have a fitted effect of over 65% in size.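 As to activity change, negative = inhibition: plate controls were DMSO wells for no effect and tomatine positive control wells for full effect.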 The settings on record: SKOV3ip1-GFP adhesion/invasion on 3D omental model, fluorescence; series mostly up to 45.8 µM; activity change, negative = inhibition: at the top concentration. Put shortly:
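qHTS, 4-pt dose (0.36-46 umol/L); SKOV3ip1-GFP, 1,200 cells/well, no FBS; primary omental fibroblast/mesothelial co-culture 48 h pre-grown; 2 h RT + 16 h 37 C; PBS wash, 4% PFA; GFP count 488/509 nm.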
Take `Cc1ccc(NC(=O)c2oc3ccc(S(=O)(=O)N4CCCCC4)cc3c2C)c(C)c1`: the “activity change, negative = inhibition” value is inactive: -18.8%.
Consider `CCCCCCc1cc2cc(-c3nnc(-c4cccc(Cl)c4)o3)c(=O)oc2cc1O`, for which the compound was classed as inactive.
As to `Cc1ccc(S(=O)(=O)N2CCCc3cc(NS(=O)(=O)c4ccc(F)cc4)ccc32)cc1`, the “activity change, negative = inhibition” value was inactive: -23.8%.
On the same count and under the same terms, the figure for `COc1cccc(NC(=O)Cn2c(=O)n(Cc3ccc(C(=O)NCc4ccc5c(c4)OCO5)cc3)c(=O)c3ccccc32)c1` is inactive: 39.2%; for `CN(C)c1ccc(CNC(=O)C2CCN(S(=O)(=O)c3ccc4c(c3)oc(=O)n4C)CC2)cc1` it is inactive: 14.2%.
On the same count and under the same terms, the figure for `CCOC(=O)C1=C(O)C(=O)N(Cc2ccccc2)C1` is inactive: 17.6%; for `O=c1c(O)c(-c2ccc(O)c(O)c2)oc2cc(O)cc(O)c12` it is inactive: -5.68%; for `COc1ccc(C2c3c(n(C)c4ccccc34)C(=O)N2CC(=O)Nc2ccc(C)cc2Cl)cc1` (stereo not drawn) it is inactive: -8.24%.
With `CCc1ccc(CNC(=O)Cn2nc(-c3ccc(Cl)cc3)ccc2=O)cc1`, the “activity change, negative = inhibition” value is inactive: -5.26%.
Still for that read-out and setting: the figure for `CCN(CC)S(=O)(=O)c1ccc(-c2csc(=Nc3cccc(C(F)(F)F)c3)n2Cc2ccc3c(c2)OCO3)cc1` is inactive: 5.64%; for `O=C(c1cncc(Br)c1)N1CCC(N2CCCC2)CC1` it is inactive: 3.57%.
`CCc1ccc(-c2cc(C)no2)cc1S(=O)(=O)NCc1ccco1`: the outcome was inactive.
On to `Cc1cccc(C(=O)N2CCCCC2CCN2CCCCC2)c1` (stereo not drawn), for which the “activity change, negative = inhibition” value is inactive: -5.07%.
Consider `O=C(Nc1ccc(F)cc1)c1oc2ccccc2c1NC(=O)C1CCCCC1`, for which the “activity change, negative = inhibition” value is inactive: -9.49%.
Still for that read-out and setting: with `O=C(NC1CCCCC1)c1ccc(Cn2c(SCc3ccccc3)nc3cccnc32)cc1` the figure was inactive: 9.04%; with `COc1ccc(C2=N[C@H](c3ccc(Cl)cc3)[C@H](c3ccc(Cl)cc3)N2C(=O)N2CCNC(=O)C2)c(OC(C)C)c1`, inactive: 24.8%; with `COc1ccc(C(=O)N2c3nc(-c4ccco4)nn3C3(CCCCC3)[C@@H]3CCCC[C@@H]32)cc1OC`, inactive: 3.89%.
On the same count and under the same terms, with `Cc1cnc(C(=O)O)c[n+]1[O-]` the figure was inactive: 0.149%; with `COCCCn1c(=O)c2sccc2n2c(CCCC(=O)Nc3ccc(F)c(F)c3)nnc12`, inactive: 0.94%.
As to `Cc1ccc2nc(NC(=O)c3ccc(S(=O)(=O)N4CCCc5ccccc54)cc3)sc2c1`, the call was inactive.
Turning to `CN1CCN(C2(CNC(=O)c3ccc([N+](=O)[O-])cc3)CCCCC2)CC1`, the outcome was inactive.
Regarding `Cc1cc(C)nc(NS(=O)(=O)c2ccc(NC(=O)c3cc(=O)c4ccc(C)c(C)c4o3)cc2)n1`, the call was inactive.
As to `Cc1ccccc1-c1nc2scc(CCNC(=O)C(=O)Nc3ccc(F)cc3F)n2n1`, the “activity change, negative = inhibition” value is inactive: -0.419%.
For the compound `Nc1c(C(=O)Nc2cccc(F)c2)sc2nc(-c3cccs3)ccc12`, the “activity change, negative = inhibition” value is inactive: 4.74%.
The same measure, in the same setting: the figure for `COc1ccc(CNC(=O)CCC2N=C3c4ccccc4N=C(SCc4ccc(F)cc4)N3C2=O)cc1` (stereo not drawn) is inactive: 2.35%.
For the compound `CCN1CCOC(=O)C1CC(=O)Nc1ccc(C)c(Cl)c1` (stereo not drawn), the compound was classed as inactive.
For the compound `COc1ccc(OC)c(NC(=O)c2c(NCc3ccc(OC)c(OC)c3)sc3c2CCC(C)C3)c1` (stereo not drawn), the “activity change, negative = inhibition” value is inactive: -2.94%.
For the compound `O=C(C1CCCCC1)N(Cc1cccnc1)c1nc2c(F)cc(F)cc2s1`, the “activity change, negative = inhibition” value is inactive: 0.642%.
On the same count and under the same terms, with `Cc1ccccc1OCCCCn1c(C2CC(=O)N(c3ccccc3Cl)C2)nc2ccccc21` (stereo not drawn) the figure was inactive: 5.8%; with `O=C(CSc1nc2c([nH]c3ccccc32)c(=O)n1-c1ccccc1)c1ccc(Cl)cc1`, inactive: 22.9%.
Same read-out and setting: the figure for `CCCn1c(CCC(=O)Nc2cccc(C)c2C)nc2cccnc21` is inactive: -5.81%.
Consider `Nc1c(C(=O)NCCc2ccccc2)nnn1CC(=O)Nc1ccc(Cl)cc1`, for which the compound was classed as inactive.
Take `Cc1ccc(Nc2c(-c3ccc(N4CCOCC4)cc3)nc3c(C)cccn23)cc1`: the “activity change, negative = inhibition” value was inactive: -6.87%.
`COc1ccc(CC(=O)Nc2ccc3nc(Nc4cccc(Cl)c4)cc(C)c3c2)cc1`: the “activity change, negative = inhibition” value is inactive: -9.19%.
As for `CCOC(=O)C1CCCN(c2c(C(=O)c3ccc(C)cc3)cnc3ccc(OCC)cc23)C1` (stereo not drawn), the result was inactive.
On to `COc1ccc(CCNC(=O)c2cc3c(-c4ccc(OC)c(OC)c4)nn(C)c3s2)cc1OC`, for which the “activity change, negative = inhibition” value is inactive: -6.57%.
Consider `Cc1cc(-c2ccc(S(=O)(=O)Nc3cc(Cl)ccc3C)s2)on1`, for which the “activity change, negative = inhibition” value was inactive: -28.1%.
Same read-out and setting: with `COCCn1c(SCC(=O)Nc2cccc(C)c2C)nc2c(oc3ccccc32)c1=O` the figure was inactive: -12.3%.
Consider `Cc1ccc(Cl)cc1N1CCN(C(=O)CCn2c(=O)c3cccn3c3cccnc32)CC1`, for which the outcome was inactive.
`CCOC(=O)c1c(C)[nH]c(CCC(=O)NCc2cccc(OC)c2)c1C`: the “activity change, negative = inhibition” value was inactive: -20%.
On to `Cc1oc2ncn(C)c(=O)c2c1C(=O)N(Cc1ccccc1)C(C)C`, for which the result was inactive.
As for `Cc1ccc(Cn2c(CO)cnc2SCc2cccc(F)c2)cc1`, the “activity change, negative = inhibition” value was inactive: 65.7%.
In the case of `O=C(CC(c1cccs1)N1Cc2ccccc2C1=O)Nc1ccc(F)cc1F` (stereo not drawn), the compound was called inactive.
As for `COc1ccc(C(CNC(=O)Cc2ccc(Cl)cc2)N2CCOCC2)cc1` (stereo not drawn), the result was inactive.
With `Cc1cccc(CC(=O)NC2CC(=O)N(c3ccccc3)C2)c1` (stereo not drawn), the “activity change, negative = inhibition” value is inactive: -7.65%.
`O=C(CCc1ccccc1)N1CCc2c([nH]c3ccccc23)C1c1ccc(Cl)cc1` (stereo not drawn): the outcome was inactive.
Still for that read-out and setting: with `Cc1oc2ccc(O)c(CN3CCCCC3C)c2c1C(=O)Nc1ccccc1` (stereo not drawn) the entry was “inactive”.
Still for that read-out and setting: the entry for `CCc1ccccc1NC(=O)CSc1nc2ncccc2o1` is “inactive”.
